Certain results were filed several times, with different values. The list is limited to them. The source may hold further records. Values given together are repeated measurements in other runs, samples, wells, individuals or studies. Marks such as [2022-09] give the month of the run.
Tested on: K-562 leukemia growth, % test/control
Test: Anticancer human tumor K-562 cell line growth inhibition;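 note: spheroids exposed to compounds for 7 days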;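 for viability, T/C: 100% = DMSO vehicle wells and lower values mean fewer viable cells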
Conditions: spheroids with HUVEC and MSC; for viability, T/C: stronger effect = lower value
Description: Multicellular complex tumor spheroid response to LSD1 Inhibitor Iadademstat in combination with a variety of drugs and investigational agents in selected tumor cell lines
The current study was undertaken to assess response to LSD1 inhibitors in combination with standard-of-care drugs and investigational agents in solid tumor complex spheroid models as well as in the K-562 leukemia. Complex spheroids include a stromal component modeled by human endothelial cells (HUVEC) and fibroblasts modeled by human mesenchymal stem cells (MSCs). The concentration ranges selected for each drug and investigational agent were based upon clinically achievable concentrations if the clinical Cmax of the agent was known.
Compounds. The drugs and investigational agents used in this study are listed on Table 1. All of the agents used, including staurosporine (NSC755774) and gemcitabine (NSC613327), were obtained from the Developmental Therapeutics Program, NCI. FDA-approved anticancer drugs are available from the NCI at http://dtp.nci.nih.gov/branches/dscb/oncology_drugset_explanation.html. Drugs and investigational agents were >95% pure by proton nuclear magnetic resonance (NMR) and liquid chromatography/mass spectrometry (LC/MS). Stock solutions were prepared at 400x in DMSO, stored at -70 degrees C, and diluted in fresh medium prior to their use. The final concentration of DMSO in cell culture wells never exceeded 0.25% (v/v). The FDA-approved anticancer drug set is available from the Developmental Therapeutics Program at https://dtp.cancer.gov/organization/dscb/obtaining/available_plates.htm. All drugs and investigational agents were tested over a range starting from a high concentration at or near the clinical Cmax and decreasing in half-log increments. If the clinical Cmax for an agent had not been determined, the highest concentration tested was 10 microM.
Cell Lines. The patient-derived cancer cell (PDC) lines: 292921-168-R-J2-PDC, K24384-001-R-PDC, and 521955-158-R2-J5-PDC pancreatic carcinomas, 556581-035-R-J1 ovarian carcinoma, 324938-238-R-J1-PDC, 855422-203-R-J1-PDC and 883617-216-R-J1-PDC urothelial bladder carcinomas, 743489-274-T-PDC renal cell carcinoma, 138582-R-J1 Merkel cell tumor, K60290-347-R-J1 and K57222-313-R-J1-PDC glioblastomas, 653999-131-R-J2-PDC, LG0703-F948-PDC, and 349418-098-R-PDC non-small cell lung carcinomas, 885512-296-R-J2-PDC, 171881-019-R-J1-PDC breast carcinomas and 186277-243-T-J2-PDC and 233499-124-R-J2-PDC colon carcinomas were obtained from the NCI Patient-Derived Models Repository (PDMR, https://pdmr.cancer.gov). The established cell lines NCI/ADR-RES (RRID:CVCL_14520 and OVCAR-5 (RRID:CVCL_1628) ovarian carcinomas, 786-O (RRID:CVCL_1051) and A498 (RRID:CVCL_A498) renal cell carcinoma, NCI-H211 (ATCC, cat. CRL-5824; RRID:CVCL_1529), NCI-H196 (ATCC, cat. CRL-5823, RRID:CVCL_1509), SW 1271 (ATCC, cat. CRL-2177, RRID:CVCL_1716) and NCI-H1876 (ATCC, cat. CRL-5902, RRID:CVCL_1503) small cell lung carcinomas, MDA-MB-231 (RRID:CVCL_0062) and MDA-MB-468 (RRID:CVCL_0419)breast carcinomas (10-12). Pooled donor human umbilical vein endothelial cells (HUVEC, Lonza, cat. CC-2519) and human mesenchymal stem cells (hMSC, Lonza, cat. PT-2501) were purchased from Lonza (Walkersville, MD).
Cell Culture. All cells were maintained in an incubator at 37 degrees C and 5% CO2 with 95% humidity. The PDC lines were cultured according to standard operating procedures established by the NCI PDMR (https://pdmr.cancer.gov). […]

With `COc1cc(Nc2ncc3c(n2)-c2ccc(Cl)cc2C(c2c(F)cccc2OC)=NC3)ccc1C(=O)O` the viability, T/C (compound alone 1 µM) was 35.1% [2022-01] and 3.37% [2022-02].
`CC1(C)CCC(CN2CCN(c3ccc(C(=O)NS(=O)(=O)c4ccc(NCC5CCOCC5)c([N+](=O)[O-])c4)c(Oc4cnc5[nH]ccc5c4)c3)CC2)=C(c2ccc(Cl)cc2)C1` was tested, and the viability, T/C (compound alone 10 µM) was 31.4% [2022-01] and 2.13% [2022-02].
In the case of `O=C(C=Cc1cccc(S(=O)(=O)Nc2ccccc2)c1)NO`, the viability, T/C (compound alone 3 µM) is reported as 0.15% [2022-01] and 106% [2022-02].
`Nc1ccn(C2OC(CO)C(O)C2(F)F)c(=O)n1` (stereo not given) was tested, and the IC50 (compound alone) was < 0.949 nM [2022-01] and 9.99 nM [2022-02].
`CC(C)CC(NC(=O)C(Cc1ccccc1)NC(=O)c1cnccn1)B(O)O` (stereo not given) was tested, and the viability, T/C (compound alone 0.001 µM) was 97% [2022-01] and 4.62% [2022-02].

Source: PubChem BioAssay AID1918948 (Molecular Pharmacology Branch, DTP, NCI, 2023)
